Drawing on US20190330313A1 (HANX BIOPHARMACEUTICS, published 2019), this text covers EC50 for one molecule.

The target in one experiment is T1, PD-1-his antigen (UniProt Q15116 partial chain, limits assumed).
T1 construct: not shown: his tag
The experiment can be described thus: ELISA, PD-1-his coated at 0.25 µg/ml. As for the experimental part: An ELISA plate was coated with PD-1-his antigen in a concentration of 0.25 μg/ml (100 μl per well) by incubation at 4° C. overnight.
The ELISA plate coated with the PD-1-his antigen was blocked with 1% BSA in the PBS buffer at 37° C. for 2 hours and washed with 1×PBST buffer containing 1% Tween-20 for three times, with gently patting to dryness.

Experiment [1] deals with T2, PD-1-hIgGFc antigen (human, UniProt Q15116 partial chain, limits assumed).
T2 construct: not shown: human IgG Fc (hIgGFc)
The experiment can be described thus: competitive ELISA, PD-1-hIgGFc coated, competitor PDL2-his tag 0.5 µg/ml. As for the experimental part: A 96-well ELISA plate was coated with PD-1-hIgGFc antigen in a concentration of 1.0 μg/ml (100 μl per well) by incubation at 4° C. overnight.
After the 96-well ELISA plate was washed with the PBST buffer for five times and gently patted to dryness, HRP-conjugated monoclonal mouse anti-his tag as a secondary antibody in 1:750 dilution (50 μl per well) was added for incubation at 37° C. for 1 hour.

Experiment [2] concerns the target T2, PD-1-hIgGFc antigen. The experiment can be described thus: competitive ELISA, PD-1-hIgGFc coated, competitor PDL1-mIgG2aFc 0.3 µg/ml. The method, then: A 96-well ELISA plate was coated with PD-1-hIgGFc antigen in a concentration of 0.5 μg/ml (50 μl per well) by incubation at 4° C. overnight.

T2 sequence (Q15116 25-167 limits assumed): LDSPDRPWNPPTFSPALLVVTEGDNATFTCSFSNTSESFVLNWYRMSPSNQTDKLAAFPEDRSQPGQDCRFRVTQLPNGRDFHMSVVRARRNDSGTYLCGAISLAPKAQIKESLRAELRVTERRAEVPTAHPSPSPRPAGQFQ
PD-1-his antigen, sequence (Q15116 25-167 limits assumed): as above

B1: humanized H2L2 antibody (IgG-like antibody against PD-1, wild-type) (antibody)
heavy: EVQLVQSGGGLVQPGGSLKLSCAASGFTFSSYGMSWVRQAPGKGLDWVATISGGGRDTYYPDSVKGRFTISRDNSKNNLYLQMNSLRAEDTALYYCARQKGEAWFAYWGQGTLVTVSSASTKGPSVFPLAPCSRSTSESTAALGCLVKDYFPEPVTVSWNSGALTSGVHTFPAVLQSSGLYSLSSVVTVPSSSLGTKTYTCNVDHKPSNTKVDKRV[left out - human IgG4 Fc with S228P (EU numbers)]
light: DIVLTQSPASLAVSPGQRATITCRASESVDNYGISFMNWFQQKPGQPPKLLIYAASNKGTGVPARFSGSGSGTDFTLNINPMEENDTAMYFCQQSKEVPWTFGGGTKLEIKRTVAAPSVFIFPPSDEQLKSGTASVVCLLNNFYPREAKVQWKVDNALQSGNSQESVTEQDSKDSTYSLSSTLTLSKADYEKHKVYACEVTHQGLSSPVTKSFNRGEC
notes: also called 18A10 H2L2; wild-type H2L2
Regarding B1, the EC50 with PD-1-his antigen is 0.05 nM; with PD-1-hIgGFc antigen [1] it was 1.58 nM; with PD-1-hIgGFc antigen [2] it was 0.783 nM.
